From PubChem BioAssay AID1508623 (National Center for Advancing Translational Sciences (NCATS), 2021)
Out of some 48,000 compounds screened, about 450 (0.94%) were called active. Roughly 19% stayed inconclusive and do not appear here. Calls follow the shape of the dose curve; as a rule, active = well fitted inhibition curve with a large enough effect; inconclusive = small, poorly fitted or top-dose-only effect; inactive = no such curve, though single readings can be large or run the other way. This is one part of the list.

experiment: Primary qHTS for Identification of Small Molecule Inhibitors of Huntingtin Promoter Activity; settings: HEK293 HTT promoter firefly luciferase reporter (activity 0% = vehicle and -100% = no light), 24 h; series mostly up to 57.5 µM; activity change, negative = inhibition: at the top concentration; also: nearly all actives have a fitted effect of over 50% in size
Description: Assay Provider: Russell L. Margolis M.D.
Department Neurology, Johns Hopkins University School of Medicine, Baltimore, MD
Huntington's Disease (HD) is a neurodegenerative disorder caused by a CAG repeat expansion in exon 1 of huntingtin (HTT). While there are currently no disease-modifying treatments for HD, recent efforts have focused on development of nucleotide-based therapeutics to lower HTT expression. As an alternative to siRNA or oligonucleotide methods, we hypothesized that suppression of HTT expression might be accomplished by small molecules that either (1) directly decrease HTT expression by suppressing HTT promoter activity or (2) indirectly decrease HTT expression by increasing the promoter activity of HTT-AS, the gene antisense to HTT that appears to inhibit expression of HTT.
We developed and employed a high throughput screen for modifiers of HTT and HTT-AS promoter activity using luminescent reporter HEK293 cells; of the 52,041 compounds tested, we identified 898 replicable hits. We used a rigorous stepwise approach to assess compound toxicity and the capacity of the compounds to specifically lower huntingtin protein in 5 different cell lines, including HEK293 cells, HD lymphoblastoid cells, mouse primary neurons, HD iPSCs differentiated into cortical-like neurons, and HD hESCs. We found no compounds which were able to lower huntingtin without lowering cell viability in all assays, though the potential efficacy of a few compounds at non-toxic doses could not be excluded.
SEQUENCE No. (1, 2, 3, etc.); […] (e.g., Cells, Incubation, Reagent, etc.); VALUE and DESCRIPTION.
1; Reagent; 4 uL; 2,500 Hek293 luciferase reporter cells per wells
3; Compound; 23 nL; Control inhibitor / compound library
5; Reagent; 2.5 uL; Firefly Luc reagent; Dual-Glo Luciferase Reporter Assay System (Promega)
6; Time; 10 min; room temperature incubation
7; Detection; Luminescence; FLuc
NOTES (numbers refer to sequence above)
1; High-throughput screening, measuring luminescence from a Hek293 luciferase reporter, was performed in 1,536 well white-walled tissue-culture treated plates. 2,500 cells were plated in 4 µL of Opti-MEM per well using a Multidrop Combi Reagent Dispenser (ThermoFisher).
2; Assay plates were cultured for 24 hours.
3; Control inhibitor (PTC124; final concentration of 50 uM) and compound library (at final concentrations of 460 nM - 57.5 uM) were added to the assay plate using the Kalypsis Pintool Robotic System equipped with 1536 pinheads.
4; Cells were then incubated for 24 hours at 37 degrees C prior to luminescence measurements.
5; In all cases, luminescence was measured using the Dual-Glo Luciferase Reporter Assay System (Promega) following the manufacturer's instructions.
6; Room temperature incubation.
7; Luminescence signal was obtained using the PerkinElmer ViewLux plate reader. Results were normalized to vehicle control (0% activity) and zero RLU (-100% activity).

Activity change, negative = inhibition, inactive:
CCN1C(=O)c2ccccc2S(=O)(=O)c2ccc(C(=O)NCc3ccc(F)cc3)cc21 -17.9%
Nc1c(NC/C=C\COc2cc(CN3CCCCC3)ccn2)c(=O)c1=O -8.53% [at 25.2 µM]
CC(=O)N[C@@H](CS)C(=O)O 5.62%
COc1ccc(NC(=O)c2ccc3[nH]c(C)cc(=O)c3c2)cc1 14.9%
Cc1ccc(/C=C/C(=O)Nc2ccc(Cl)cc2Cl)cc1 24.6%
Cc1ccc(NC(=O)Cc2coc3c(C)c(C)ccc23)c(C)c1 -3.51%
Cc1ccc(-n2cc(C(=O)OCc3ccc(Cl)cc3)c3ccccc3c2=O)cc1 -11.3%
COC(=O)C1CCN(c2csc3ccc(C)cc3c2=O)CC1 14.8%
Cc1ccc(C)c(NC(=O)CN(Cc2ccccc2)S(=O)(=O)c2ccc3nc(C)sc3c2)c1 -20.6%
NCc1ccccc1Sc1ccccc1CO 5.38%
COc1cc(C2Oc3nc(SC)nnc3-c3ccccc3N2C(C)=O)cc(Cl)c1OC (configuration not stated) -17.3% [at 11.5 µM]
Cc1cc(Br)ccc1NC(=O)c1sc2ncn(Cc3ccccc3Cl)c(=O)c2c1C 4.51%
Cc1cccc(NC(=O)CCS(=O)(=O)c2cc(Br)cc3c2N(C(=O)C2CC2)CC3)c1C -11.5%
CCCNC(=O)Cn1nc(C)c2c(C)n(-c3ccccc3)nc2c1=O -11.6%
CC1CCN(S(=O)(=O)c2cccc(C(=O)N(C)C3(C)CCS(=O)(=O)C3)c2)CC1 (configuration not stated) -27.5%
CC(NC(=O)C1CCN(C(=O)N2CCOc3ccccc32)CC1)c1ccccc1 (configuration not stated) 1.38%
CCCCNC(=O)CSc1nc2ccccc2nc1Cc1ccccc1 -10.4%
Cc1ccc(N2CC(NC(=O)C3CCCC3)CC2=O)cc1 (configuration not stated) -21.9%
CC(C)CCNC(=O)c1ccc(NC(=O)N2CCCCc3ccccc32)cc1 -2.68%
COc1cccc(N2CCN(C(=O)Cn3ncc4c3-c3ccccc3OC4)CC2)c1 -18.7%
Cc1ccc(C(=O)c2cn(CC(=O)Nc3ccc4c(c3)OCCO4)c3nc(C)ccc3c2=O)cc1 -16.5%
CC(C)CC(NC(=O)C1CCC(C)CC1)C(=O)OCC(=O)c1ccc(Cl)cc1 (configuration not stated) -28.4%
O=C(CSc1nc2ccccc2n1Cc1ccccc1)NCc1ccccc1 -25.1%
CSc1oc(-c2ccc(F)cc2)nc1S(=O)(=O)c1ccc(Br)cc1 -29.1%
Cc1cc(C)cc(OC(C)C(=O)Nc2nc3c(s2)CCCC3)c1 (configuration not stated) -19.6%
COc1ccc(NC(=O)c2ccco2)cc1NC(=O)c1ccc(OC(C)C)cc1 -18.5%
COc1ccc(Oc2ncnc3c2oc2ccccc23)cc1 40.8%
CCOC(=O)c1ccc(NC(=O)C2CCCN(c3cnccn3)C2)cc1 (configuration not stated) 15.6%
COc1cccc(/C=C(\C#N)c2nc3ccccc3c(=O)[nH]2)c1OC -11.2%
CCCC(C(=O)Nc1cc(C)c(Cl)cc1OC)N1Cc2ccccc2C1=O (configuration not stated) -12.4%
COc1ccc(CCNC(=O)Cn2nc(-c3ccc(Cl)cc3)ccc2=O)cc1OC -19.1%
COc1cn(CC(=O)Nc2cccc(C)c2)c(CN2CCCCC2)cc1=O -12.7%
Cc1ccc(NC(=O)N2CCC(CN3CCCCC3)CC2)c(Cl)c1 -11.7%
CCn1cc(/C=C(\NC(=O)c2ccc(OC)c(OC)c2)C(=O)NCCCn2ccnc2)c2ccccc21 -3.23%
Cc1nc2sccn2c(=O)c1S(=O)(=O)Nc1cccc(Cl)c1C -27.5%
CC(=O)c1ccc(N2CCN(S(=O)(=O)c3ccc(-c4cnc(C5CC5)o4)cc3)CC2)cc1 -23.7%
Cc1ccc(N2CCN(C(=O)CCS(=O)(=O)c3cc4c(cc3Cl)NC(=O)CO4)CC2)c(C)c1 -26.9%
CC1CCN(c2nc3c(S(=O)(=O)c4cccc(Cl)c4)nnn3c3ccsc23)CC1 -21.5%
O=C(O)Cc1cccc(OCCCN(Cc2cccc(C(F)(F)F)c2Cl)CC(c2ccccc2)c2ccccc2)c1 -1.81%
CC(C)(C)OC(=O)N1CCC(c2c(C(=O)N3CCN(c4ncccn4)CC3)cnn2-c2ccc(F)cc2)CC1 -18.7%
CCOC(=O)c1c(-c2ccc(OC)cc2)oc2ccc(OCc3ccc(F)cc3F)cc12 -9.34% [at 11.5 µM]
Cc1cn2c(=O)cc(COC(=O)c3ccc(NC(=O)c4ccc(C(C)(C)C)cc4)cc3)nc2s1 -24.7%
COc1ccc(CNS(=O)(=O)c2csc(C(N)=O)c2)cc1OC -13%
COc1ccc(C2=Nc3ccccc3N(CC(=O)Nc3cccc(C(C)=O)c3)C(=O)C2)cc1 18.2%
CCOC(=O)c1ccc(NC(=O)C(CC)Sc2nncn3c2cc2oc(C)cc23)cc1 (configuration not stated) -0.125%
CCCCNc1nc2c(-c3cccc(Br)c3)nnn2c2ccccc12 8.39%
COc1cccc2c1cc1c(=O)n(CC(=O)NCCCN3CCN(C)CC3)nc(C)n12 -1.65%
O=C1Nc2c(c(=O)[nH]c(=O)n2-c2ccc(F)cc2)C1(NS(=O)(=O)c1ccc(Cl)cc1)C(F)(F)F (configuration not stated) -10.3%
COC(=O)c1ccc(OCC2c3cc(OC)c(OC)cc3CCN2C(=O)Cc2ccc(OC)c(OC)c2)cc1 (configuration not stated) -18.4%
CC(C)c1nn2c(=O)cc(COC(=O)c3ccc4c(c3)OCO4)nc2s1 -0.963%
Cc1cn2c(=O)c(S(=O)(=O)NCCc3ccc(Cl)cc3)c(C)nc2s1 -7.63%
CC(=O)N1CCc2c(sc3c2c(=O)n(-c2ccccc2)c(=O)n3CC(=O)c2ccc(F)cc2)C1 7.82%
COc1cc(C(=O)Nc2nnc(CC(C)(C)C)s2)cc(OC)c1OC -4.01%
CCc1ccc2occ(CC(=O)NCc3ccccc3)c2c1 -21.5%
COc1ccc(-c2nc3sc(CCNC(=O)c4ccc(C(C)(C)C)cc4)c(C)n3n2)cc1 52.9%
CCOc1ccccc1C(=O)Nc1cc2c(cc1C)n(C)c(=O)c(=O)n2C -5.89%
CCOC(=O)C1CCC(CN(Cc2ccc(OC)cc2)S(=O)(=O)c2ccc(F)c(C(=O)Nc3cc(Cl)ccc3OC)c2)CC1 (configuration not stated) 6.65%
COc1ccc(CNC(=O)CN(C)S(=O)(=O)c2ccc3[nH]c4c(c3c2)CCCC4)cc1 -28.9%
Cn1cc(-c2cc3n(n2)CCC(=O)N3CCCC(=O)NCc2ccccc2)c2ccccc21 -9.2%
CCN(CC)CCNC(=O)Cn1cnc2sc(C)c(S(=O)(=O)N3CCC(C)CC3)c2c1=O -10.7%
CCOC(=O)c1cnc2c(C)cc(C)cc2c1Nc1ccc(N2CCOCC2)cc1 -9.86%
Cc1oc(-c2ccc(Cl)cc2)nc1CN1CCCC(C(=O)NCc2ccc(Cl)cc2)C1 (configuration not stated) -6.05%
COc1cccc(NS(=O)(=O)c2ccc3[nH]cc(C(=O)N(C)Cc4ccco4)c(=O)c3c2)c1 5.68%
Cn1c(=O)c2c(c3ccccc31)OC(=O)CC2c1ccccc1 (configuration not stated) -6.4%
O=c1c2ccccc2n2c(-c3cccc(F)c3)nnc2n1Cc1ccccc1 0.13%
COc1ccc(NC(=O)c2ccc3c(=O)n4nc(Nc5ccccc5C)sc4nc3c2)cc1 -21.3%
CCOC(=O)N1CCN(C(=O)c2cnn(-c3cccc(C)c3)c2-n2cccc2)CC1 -22.3%
C1=CC2C3C=CC(C3)C2C1 (configuration not stated) 11.1% [at 116 µM]
CN(C)c1ccc(-c2nc3ccccn3c2Nc2ccc3c(c2)OCCO3)cc1 41.4%
Cc1cccc(N2CCN(C(=O)c3c4c(nc5ccccc35)C(=O)N(C3CCCCC3)C4)CC2)c1C -6.7%
COc1ccc(OC)c(NC(=O)c2cc3c(=O)n4cccc(C)c4nc3n2C)c1 -5.23%
Cc1ccc(N(C)C(=O)c2noc3c2CCCCC3)cc1C -17.6%
Cc1ccc(CC(=O)NCc2nc(-c3cccc(C)c3)no2)cc1 -5.74%
Cc1cccc(C)c1OCc1cc(=O)n2ccsc2n1 -3.6%
COc1cccc(NC(=O)CSc2nnc(NC(=O)NC3CCCCC3)s2)c1 28.7%
O=C(Cn1c(=O)c2sccc2n(CC(=O)Nc2ccc(Cl)cc2Cl)c1=O)NCCc1ccccc1 -12.5%
CCCN1Cc2cccc(C(=O)Nc3ccc(OC)cc3OC)c2C1=O -14%
COc1cccc(C(=O)c2cn(CC(=O)Nc3cccc(Cl)c3C)c3nc(C)ccc3c2=O)c1 -5.91%
COCCN1C(=O)c2oc3ccc(C)cc3c(=O)c2C1c1ccc(C(=O)OC)cc1 (configuration not stated) 2.04%
CSc1ncc(C(=O)NCc2cccc(Br)c2)c(-c2ccccc2)n1 -1.8%
COc1ccc(CNS(=O)(=O)c2ccc3c(c2)C(C)(C)C(=O)N3C)cc1OC -23.2%
O=C(NCc1ccccc1F)C(=O)NCC(c1ccco1)S(=O)(=O)c1ccccc1 (configuration not stated) -24.1%
Cc1ccc(C(C)C)c(OCC(=O)Nc2ccc(-c3nc4ncccc4o3)cc2C)c1 -12.1%
COc1ccc(C(C(=O)NCc2ccccc2)N(C(=O)Cn2nnc3ccccc32)c2ccc(OC)cc2)cc1 (configuration not stated) -10.7%
O=C1CC(=O)Nc2cc(S(=O)(=O)Nc3cccc(Br)c3)ccc2N1 -11.7%
COC(=O)c1cc2sc(Cl)cc2n1Cc1nc(-c2ccccc2F)oc1C -3.37%
Cc1ccc(CCNC(=O)c2ccc(CNS(=O)(=O)c3ccc(F)cc3)cc2)cc1 6.86%
CC(=O)N1CCc2c(sc(NC(=O)CSc3ccc(C)cc3)c2-c2nc3ccccc3s2)C1 3.97%
Cc1cc(C)c2c(n1)SCC(=O)N2CC(=O)Nc1c(C)cccc1C -12.9%
Cc1cc(C)cc(NC(=O)Nc2c[nH]c(=O)[nH]c2=O)c1 -3.96%
O=C(NC1(C(F)(F)F)N=C(c2ccccc2)N(C2CCCCC2)C1=O)c1ccccc1F (configuration not stated) -43.4% [at 11.5 µM]
Cc1ccc(-c2cc(-c3coc4ccccc4c3=O)c3c(n2)-c2cc(Cl)ccc2OC3)cc1 -5.15%
COc1ccccc1NC(=O)Cn1c(SCC(=O)NCc2ccccc2)nc2ccccc21 -31.4%
Cc1cc(C)cc(NC(=O)NCC2CCN(Cc3cc(C)ccc3C)CC2)c1 -14%
CC(=O)Nc1ccc(-c2nnc3n(CC(C)C)c(=O)c4ccccc4n23)cc1 4.22%
COc1ccc(CCC(=O)NCCc2csc(-c3cccc(F)c3)n2)cc1 -22.4%
COc1ccc(NC(=O)c2oc3ccc4c(c3c2C)C(=O)CC(C)(C)O4)cc1OC 39.1%
